Reference: the supplement of paper PMC4604168 (melanoma cell lines)
The other results are listed elsewhere or left out. Repeats are few or missing, and single values can be far off.

Columns and labels:
Test in all cases: cell count relative to DMSO control; melanoma cells; higher = more viable cells
Conditions in all cases: library dose: low library concentration; 72 h
[1] = tested on: MZ2-MEL
[2] = tested on: MeWo
[3] = tested on: RPMI7951
[4] = tested on: RVH-421
[5] = tested on: SkMel28
[6] = tested on: SkMel2
[7] = tested on: SkMel30
[8] = tested on: UACC62
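Note: cell number obtained by counting DAPI-stained nuclei in high-throughput microscope images with image analysis software, screen run in 1,536-well plates.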

SMILES	cell count [1] [%]	cell count [2] [%]	cell count [3] [%]	cell count [4] [%]	cell count [5] [%]	cell count [6] [%]	cell count [7] [%]	cell count [8] [%]
CC1(C)CCC(c2ccc(Cl)cc2)=C(CN2CCN(c3ccc(C(=O)NS(=O)(=O)c4ccc(N[C@H](CCN5CCOCC5)CSc5ccccc5)c(S(=O)(=O)C(F)(F)F)c4)cc3)CC2)C1 + Nc1ccn([C@@H]2O[C@H](CO)[C@@H](O)C2(F)F)c(=O)n1 [gemcitabine] (first compound 0.4 µM, partner dose 0.0004 µM)	80	63.7	41.3	52.1	93.3	86.8	92.3	113
O=C(/C=C/c1cccnc1)NCCCCC1CCN(C(=O)c2ccccc2)CC1 + Cn1sc(=O)n(Cc2ccccc2)c1=O [TDZD-8] (first compound 0.01 µM, partner dose 0.4 µM)	49.1	102	83.5	36.5	102	35.4	122	108
Cc1ccc(Nc2nccc(N(C)c3ccc4c(C)n(C)nc4c3)n2)cc1S(N)(=O)=O [Pazopanib] + Nc1nc(F)nc2c1ncn2[C@@H]1O[C@H](CO)[C@@H](O)[C@@H]1O [fludarabine] (first compound 0.4 µM, partner dose 0.2 µM)	73.7	45.4	85.1	89.1	73	18.5	24.8	86.3
CC1(C)CCC(c2ccc(Cl)cc2)=C(CN2CCN(c3ccc(C(=O)NS(=O)(=O)c4ccc(N[C@H](CCN5CCOCC5)CSc5ccccc5)c(S(=O)(=O)C(F)(F)F)c4)cc3)CC2)C1 + Cc1cc(Nc2cc(N3CCN(C)CC3)nc(/C=C/c3ccccc3)n2)n[nH]1 [ENMD2076] (first compound 0.4 µM, partner dose 0.04 µM)	96.3	68	65	61.3	96.4	85.5	62	80.1
O=C(/C=C/c1cccnc1)NCCCCC1CCN(C(=O)c2ccccc2)CC1 + Cn1nnc2c(C(N)=O)ncn2c1=O [temozolomide] (first compound 0.01 µM, partner dose 2 µM)	50.2	106	97.5	53.9	67.9	21.6	92.7	89.8
CC1(C)CCC(c2ccc(Cl)cc2)=C(CN2CCN(c3ccc(C(=O)NS(=O)(=O)c4ccc(N[C@H](CCN5CCOCC5)CSc5ccccc5)c(S(=O)(=O)C(F)(F)F)c4)cc3)CC2)C1 + Cn1sc(=O)n(Cc2ccccc2)c1=O [TDZD-8] (first compound 0.4 µM, partner dose 0.4 µM)	91.9	75.6	55.9	69.8	84.8	86.5	84.9	88.3
O=C(/C=C/c1cccnc1)NCCCCC1CCN(C(=O)c2ccccc2)CC1 + COCC[n+]1c2c(n(Cc3cnccn3)c1C)C(=O)c1ccccc1C2=O [YM155] (first compound 0.01 µM, partner dose 0.0004 µM)	48.2	106	80.2	47.4	116	33.1	64.8	97.3
O=C(/C=C/c1cccnc1)NCCCCC1CCN(C(=O)c2ccccc2)CC1 + C[C@]1(c2nc3c(C(N)=O)cccc3[nH]2)CCCN1 [Veliparib] (first compound 0.01 µM, partner dose 1.4 µM)	57.2	115	107	47.4	90.8	53.7	113	78.9
CC1(C)CCC(c2ccc(Cl)cc2)=C(CN2CCN(c3ccc(C(=O)NS(=O)(=O)c4ccc(N[C@H](CCN5CCOCC5)CSc5ccccc5)c(S(=O)(=O)C(F)(F)F)c4)cc3)CC2)C1 + CCN(CC)CCNC(=O)c1c(C)[nH]c(/C=C2\C(=O)Nc3ccc(F)cc32)c1C [sunitinib] (first compound 0.4 µM, partner dose 0.4 µM)	104	54.2	78.6	90	86.6	102	61.8	87.5
Cc1ccc(Nc2nccc(N(C)c3ccc4c(C)n(C)nc4c3)n2)cc1S(N)(=O)=O [Pazopanib] + Cn1c(=O)n(-c2ccc(C(C)(C)C#N)cc2)c2c3cc(-c4cnc5ccccc5c4)ccc3ncc21 [NVP-BEZ235] (first compound 0.4 µM, partner dose 0.004 µM)	68.2	84	75.5	123	74.3	95.7	82.4	78.7
Cc1ccc(Nc2nccc(N(C)c3ccc4c(C)n(C)nc4c3)n2)cc1S(N)(=O)=O [Pazopanib] + C[C@]1(O)C[C@@H](c2nc(-c3ccc4ccc(-c5ccccc5)nc4c3)c3c(N)nccn32)C1 [OSI906] (first compound 0.4 µM, partner dose 0.4 µM)	82.3	110	73.1	99.8	93.8	88.1	88.4	93.1
CC1(C)CCC(c2ccc(Cl)cc2)=C(CN2CCN(c3ccc(C(=O)NS(=O)(=O)c4ccc(N[C@H](CCN5CCOCC5)CSc5ccccc5)c(S(=O)(=O)C(F)(F)F)c4)cc3)CC2)C1 + Cc1ccc(Nc2nccc(N(C)c3ccc4c(C)n(C)nc4c3)n2)cc1S(N)(=O)=O [Pazopanib] (first compound 0.4 µM, partner dose 0.4 µM)	77.9	81.9	61.6	94.7	86.5	82.1	71.7	119
CC1(C)CCC(c2ccc(Cl)cc2)=C(CN2CCN(c3ccc(C(=O)NS(=O)(=O)c4ccc(N[C@H](CCN5CCOCC5)CSc5ccccc5)c(S(=O)(=O)C(F)(F)F)c4)cc3)CC2)C1 + COc1ccc(Cl)c(Nc2nc3ccccc3nc2NS(=O)(=O)c2cccc(NC(=O)C(C)(C)N)c2)c1 [XL147] (first compound 0.4 µM, partner dose 0.8 µM)	94.7	72.6	66.4	75.3	95.7	84.8	86.7	101
O=C(/C=C/c1cccnc1)NCCCCC1CCN(C(=O)c2ccccc2)CC1 + CC(C)C[C@H](NC(=O)[C@H](Cc1ccccc1)NC(=O)c1cnccn1)B(O)O [Bortezomib] (first compound 0.01 µM, partner dose 0.001 µM)	46.7	93.7	103	45.6	78.2	34.8	97.6	81.6
O=C(/C=C/c1cccnc1)NCCCCC1CCN(C(=O)c2ccccc2)CC1 + Cc1ccc(Nc2nccc(N(C)c3ccc4c(C)n(C)nc4c3)n2)cc1S(N)(=O)=O [Pazopanib] (first compound 0.01 µM, partner dose 0.4 µM)	28.7	117	103	53.2	92.3	17.9	101	92.1
O=C(/C=C/c1cccnc1)NCCCCC1CCN(C(=O)c2ccccc2)CC1 + CC1(C)CCC(c2ccc(Cl)cc2)=C(CN2CCN(c3ccc(C(=O)NS(=O)(=O)c4ccc(N[C@H](CCN5CCOCC5)CSc5ccccc5)c(S(=O)(=O)C(F)(F)F)c4)cc3)CC2)C1 [ABT263] (first compound 0.01 µM, partner dose 0.4 µM)	28.1	78.5	58.4	28.2	98.2	25.5	85.2	103
CC1(C)CCC(c2ccc(Cl)cc2)=C(CN2CCN(c3ccc(C(=O)NS(=O)(=O)c4ccc(N[C@H](CCN5CCOCC5)CSc5ccccc5)c(S(=O)(=O)C(F)(F)F)c4)cc3)CC2)C1 + NC1(c2ccc(-c3nc4ccn5c(=O)[nH]nc5c4cc3-c3ccccc3)cc2)CCC1 [MK2206] (first compound 0.4 µM, partner dose 0.4 µM)	95.8	61.7	46.3	55.4	81.7	80.7	45.8	87.6
Cc1ccc(Nc2nccc(N(C)c3ccc4c(C)n(C)nc4c3)n2)cc1S(N)(=O)=O [Pazopanib] + C[C@@H](Oc1cc(-c2cnn(C3CCNCC3)c2)cnc1N)c1c(Cl)ccc(F)c1Cl [Crizotinib] (first compound 0.4 µM, partner dose 0.2 µM)	72.5	95.2	101	80.5	90.6	92.5	83.3	92.6
O=C(/C=C/c1cccnc1)NCCCCC1CCN(C(=O)c2ccccc2)CC1 + C=C(c1ccc(C(=O)O)cc1)c1cc2c(cc1C)C(C)(C)CCC2(C)C [Bexarotene] (first compound 0.01 µM, partner dose 2 µM)	48.5	90.4	76.8	49.1	74.5	42.8	124	92.4
O=C(/C=C/c1cccnc1)NCCCCC1CCN(C(=O)c2ccccc2)CC1 + CN(c1ncccc1CNc1nc(Nc2ccc3c(c2)CC(=O)N3)ncc1C(F)(F)F)S(C)(=O)=O [PF562271] (first compound 0.01 µM, partner dose 0.08 µM)	29.2	108	80.4	40.7	90.2	30.7	94.2	85.6
